Not every detail of the peptide structures is certain; ends, links or a residue may be inferred. Ends that are not written are not given here.
System: insulin
Assay: Dog hyperglycemic clamp study, insulin change
Assay type: in vivo, dogs
Conditions: dog hyperglycemic (150 mg/dL) clamp, last 30 min of infusion, mean ± SEM
[1] = infusion rate 1 pmol/kg/min i.v.
[2] = infusion rate 3 pmol/kg/min i.v.

Question: Which “Pharmacodynamics (insulin change AUC)” value [1] does the source give for “HVEGTFTSDVSSYLEEQAAKEFIAWLIKGGPSSGAPPPS [SEQ ID NO:55]” here?
Answer: 2.2 ± 0.5 mU·min/mL

Question: And the “Pharmacodynamics (insulin change AUC)” value [2]?
Answer: 5.2 ± 1.4 mU·min/mL

Question: Which results are given for “HVEGTFTSDVSSYLEEQAAKEFIAWLVKGGPSSGAPPPS [SEQ ID NO:33]”?
Answer: Pharmacodynamics (insulin change AUC) [1]: 1.9 ± 0.5 mU·min/mL; Pharmacodynamics (insulin change AUC) [2]: 4.3 ± 1.5 mU·min/mL

Question: Which “Pharmacodynamics (insulin change AUC)” value [1] does the source give for “HVEGTFTSDVSSYLEEQAVKEFIAWLIKGGPSSGAPPPRG [SEQ ID NO:48]” here?
Answer: 2.2 ± 0.6 mU·min/mL

Question: And the “Pharmacodynamics (insulin change AUC)” value [2]?
Answer: 4.0 ± 1.4 mU·min/mL

Question: How did the “Pharmacodynamics (insulin change AUC)” value [1] turn out when “HVEGTFTSDVSSYLEEQAVKEFIAWLIKGGPSSGAPPPS [SEQ ID NO:42]” was run?
Answer: 2.3 ± 0.6 mU·min/mL

Question: And the “Pharmacodynamics (insulin change AUC)” value [2]?
Answer: 6.1 ± 1.5 mU·min/mL

Question: “HVEGTFTSDVSSYLEEQAVKEFIAWLIKGGPSSGAPPPS-NH2 [SEQ ID NO:13]” was tested. Which “Pharmacodynamics (insulin change AUC)” value [1] did it give?
Answer: 1.4 ± 0.3 mU·min/mL

Question: What about the “Pharmacodynamics (insulin change AUC)” value [2] of the same substance?
Answer: 4.0 ± 0.9 mU·min/mL

Question: What does the source list for “HVEGTFTSDVSSYLEEQAVKEFIAWLIKGGPSSGAPPPSH [SEQ ID NO:43]”?
Answer: Pharmacodynamics (insulin change AUC) [1]: 1.2 ± 0.5 mU·min/mL; Pharmacodynamics (insulin change AUC) [2]: 4.6 ± 1.9 mU·min/mL

Question: “HVEGTFTSDVSSYLEEQAVKEFIAWLIKGRGSSGAPPPS [SEQ ID NO:35]” was tested. Which “Pharmacodynamics (insulin change AUC)” value [1] did it give?
Answer: 1.1 ± 0.1 mU·min/mL

Question: And the “Pharmacodynamics (insulin change AUC)” value [2]?
Answer: 3.7 ± 0.9 mU·min/mL
